# Test results taken from article PMC10331583, “Control of fibrosis with enhanced safety via asymmetric inhibition of prolyl‐tRNA synthetase 1” (EMBO Molecular Medicine, 2023).
# Where “and” joins values, the source holds several entries; their conditions need not be identical. Equal entries are not always repeated. The source gives many values for each of these; only a part stands here.
# Columns and labels:
# WI‐26 VA4 cells [1] = test: Puromycin incorporation assay; assay type: cell-based, human; details: 10 nM; 0.01 µM
# Procedure: After being rinsed with cold PBS twice, the cells were collected and resuspended in 200 μl of the carbonate bicarbonate buffer (Sigma Aldrich, C3041‐50CAP) with protease inhibitor. The cell lysates were obtained by sonication and centrifugation at 20,000 g for 15 min at 4°C. After protein quantification using a Pierce™ BCA Protein Assay Kit (Thermo Fisher Scientific, 23225), 400 ng of the proteins was coated to ELISA plates for 18 h at 4°C. […] The plates were rinsed with the washing buffer for three times after each antibody incubation step. […] The amount of puromycin incorporated in proteins was determined by measuring the absorbance at 450 nm (reference wavelength at 620 nm). Experimental values marked in red with strikethrough text in the Figure Source Data file were excluded from the analysis. These values were determined by considering the values of biological and technical replicates under the same condition, as well as the values at the former and later chemical concentrations.
# WI‐26 VA4 cells [2] = test: CellTiter‐Glo assay (cytotoxicity)
# WI‐26 VA4 cells [3] = test: Collagen ELISA (secreted pro‐collagen I)
smiles,measurement,setting,value
"O=C(CC1NCCCC1O)Cn1cnc2cc(Br)c(Cl)cc2c1=O (stereo not drawn) [HF, Halofuginone, reference compound]","Puromycin, % of control, single replicate",WI‐26 VA4 cells [1],94.54 % of control and 100.63 % of control and 99.91 % of control and 99.10 % of control
same,CellTiter-Glo % of control,"WI‐26 VA4 cells [2]; 0.3 nM, Experiment #2, replicates, 0.0003 µM",115.42 % of control and 90.13 % of control
same,CellTiter-Glo % of control,"WI‐26 VA4 cells [2]; 1 nM, Experiment #1, replicates, 0.001 µM",96.66 % of control
same,CellTiter-Glo % of control,"WI‐26 VA4 cells [2]; 1 nM, Experiment #2, replicates, 0.001 µM",118.70 % of control and 87.76 % of control
same,CellTiter-Glo % of control,"WI‐26 VA4 cells [2]; 3 nM, Experiment #2, replicates, 0.003 µM",118.55 % of control and 83.06 % of control
same,CellTiter-Glo % of control,"WI‐26 VA4 cells [2]; 10 nM, Experiment #1, replicates, 0.01 µM",94.44 % of control
same,CellTiter-Glo % of control,"WI‐26 VA4 cells [2]; 10 nM, Experiment #2, replicates, 0.01 µM",90.61 % of control
same,CellTiter-Glo % of control,"WI‐26 VA4 cells [2]; 30 nM, Experiment #2, replicates, 0.03 µM",80.64 % of control
same,CellTiter-Glo % of control,"WI‐26 VA4 cells [2]; 100 nM, Experiment #1, replicates, 0.1 µM",30.18 % of control
same,CellTiter-Glo % of control,"WI‐26 VA4 cells [2]; 100 nM, Experiment #2, replicates, 0.1 µM",26.60 % of control
same,CellTiter-Glo % of control,"WI‐26 VA4 cells [2]; 300 nM, Experiment #2, replicates, 0.3 µM",18.70 % of control
same,CellTiter-Glo % of control,"WI‐26 VA4 cells [2]; 1000 nM, Experiment #1, replicates, 1 µM",18.92 % of control
same,CellTiter-Glo % of control,"WI‐26 VA4 cells [2]; 1000 nM, Experiment #2, replicates, 1 µM",28.88 % of control
same,CellTiter-Glo % of control,"WI‐26 VA4 cells [2]; 3000 nM, Experiment #2, replicates, 3 µM",9.38 % of control
same,CellTiter-Glo % of control,"WI‐26 VA4 cells [2]; 10000 nM, Experiment #2, replicates, 10 µM",4.86 % of control
same,CellTiter-Glo % of control,"WI‐26 VA4 cells [2]; 30000 nM, Experiment #2, replicates, 30 µM",1.57 % of control
same,CellTiter-Glo % of control,"WI‐26 VA4 cells [2]; 100000 nM, Experiment #1, replicates, 100 µM",0.10 % of control and -0.08 % of control
same,CellTiter-Glo % of control,"WI‐26 VA4 cells [2]; 100000 nM, Experiment #2, replicates, 100 µM",-0.13 % of control and 0.13 % of control
same,"Collagen, % of control (single replicates per experiment)","WI‐26 VA4 cells [3]; 0.3 nM, 0.0003 µM",86.70 % of control and 76.16 % of control and 116.39 % of control and 102.94 % of control and 94.65 % of control and 98.90 % of control and 98.18 % of control and 96.93 % of control
same,"Collagen, % of control (single replicates per experiment)","WI‐26 VA4 cells [3]; 1 nM, 0.001 µM",98.04 % of control and 96.86 % of control and 109.11 % of control and 102.23 % of control and 91.90 % of control and 133.86 % of control and 92.78 % of control and 98.00 % of control
same,"Efficacy, % of control, single replicate","WI‐26 VA4 cells [3]; 1 nM, 0.001 µM",108.08 % of control and 107.58 % of control and 97.95 % of control
same,"Collagen, % of control (single replicates per experiment)","WI‐26 VA4 cells [3]; 3 nM, 0.003 µM",97.69 % of control and 95.57 % of control and 101.47 % of control and 131.17 % of control and 96.01 % of control and 98.52 % of control and 85.47 % of control
same,"Efficacy, % of control, single replicate","WI‐26 VA4 cells [3]; 3 nM, 0.003 µM",105.66 % of control and 104.27 % of control and 120.54 % of control and 100.00 % of control and 108.64 % of control
same,"Collagen, % of control (single replicates per experiment)","WI‐26 VA4 cells [3]; 10 nM, 0.01 µM",69.88 % of control and 61.64 % of control and 85.14 % of control and 85.08 % of control and 61.39 % of control and 66.93 % of control and 72.84 % of control and 72.49 % of control
same,"Efficacy, % of control, single replicate","WI‐26 VA4 cells [3]; 10 nM, 0.01 µM",49.84 % of control and 107.58 % of control and 96.74 % of control and 53.23 % of control and 57.70 % of control
same,"Collagen, % of control (single replicates per experiment)","WI‐26 VA4 cells [3]; 30 nM, 0.03 µM",16.49 % of control and 14.04 % of control and 24.65 % of control and 24.44 % of control and 22.22 % of control and 23.70 % of control and 29.72 % of control and 17.81 % of control
same,"Efficacy, % of control, single replicate","WI‐26 VA4 cells [3]; 30 nM, 0.03 µM",15.09 % of control and 39.75 % of control and 36.88 % of control and 15.59 % of control and 17.04 % of control
same,"Collagen, % of control (single replicates per experiment)","WI‐26 VA4 cells [3]; 100 nM, 0.1 µM",2.24 % of control and 1.74 % of control and 4.76 % of control and 5.75 % of control and 3.24 % of control and 3.45 % of control (2×) and 3.95 % of control
same,"Efficacy, % of control, single replicate","WI‐26 VA4 cells [3]; 100 nM, 0.1 µM",3.45 % of control and 5.89 % of control and 5.36 % of control and 1.66 % of control and 2.29 % of control
same,"Collagen, % of control (single replicates per experiment)","WI‐26 VA4 cells [3]; 300 nM, 0.3 µM",1.13 % of control and 0.60 % of control and 3.80 % of control and 3.79 % of control and 3.14 % of control and 3.55 % of control and 2.08 % of control and 2.50 % of control
same,"Efficacy, % of control, single replicate","WI‐26 VA4 cells [3]; 300 nM, 0.3 µM",3.41 % of control and 4.49 % of control and 3.15 % of control and 0.88 % of control and 1.96 % of control
same,"Collagen, % of control (single replicates per experiment)","WI‐26 VA4 cells [3]; 1000 nM, 1 µM",4.02 % of control and 2.80 % of control and 2.93 % of control and 2.91 % of control
same,"Efficacy, % of control, single replicate","WI‐26 VA4 cells [3]; 1000 nM, 1 µM",3.21 % of control and 2.82 % of control and 2.14 % of control and 2.22 % of control
